The other results are listed elsewhere or left out. Interaction screen of human proteins with wild-type SARS-CoV-2 proteins by split-DHFR complementation in yeast, 1 µg/mL methotrexate. Value = fitness of the pair (three or more lineages) minus that of the viral protein without a human partner, on a scale set by negative (0) and fused positive (1) controls, mean of up to three cultures; higher = more likely to interact. Active = false discovery rate below 0.05 (one-sided t-test) in at least one culture. Nearly all pairs are not hits, and differences among them are mostly noise (correlation between cultures about 0.3); most hits were seen in one culture only. Human sequences are the Swiss-Prot entries looked up by gene name; the clone may be another isoform. NSP2 values were corrected by the authors for a growth advantage. Listed are human proteins with a hit and a random twelfth of the others.
B1: EXTL3, O43909 (protein)
chain: MTGYTMLRNGGAGNGGQTCMLRWSNRIRLTWLSFTLFVILVFFPLIAHYYLTTLDEADEAGKRIFGPRVGNELCEVKHVLDLCRIRESVSEELLQLEAKRQELNSEIAKLNLKIEACKKSIENAKQDLLQLKNVISQTEHSYKELMAQNQPKLSLPIRLLPEKDDAGLPPPKATRGCRLHNCFDYSRCPLTSGFPVYVYDSDQFVFGSYLDPLVKQAFQATARANVYVTENADIACLYVILVGEMQEPVVLRPAELEKQLYSLPHWRTDGHNHVIINLSRKSDTQNLLYNVSTGRAMVAQSTFYTVQYRPGFDLVVSPLVHAMSEPNFMEIPPQVPVKRKYLFTFQGEKIESLRSSLQEARSFEEEMEGDPPADYDDRIIATLKAVQDSKLDQVLVEFTCKNQPKPSLPTEWALCGEREDRLELLKLSTFALIITPGDPRLVISSGCATRLFEALEVGAVPVVLGEQVQLPYQDMLQWNEAALVVPKPRVTEVHFLLRSLSDSDLLAMRRQGRFLWETYFSTADSIFNTVLAMIRTRIQIPAAPIREEAAAEIPHRSGKAAGTDPNMADNGDLDLGPVETEPPYASPRYLRNFTLTVTDFYRSWNCAPGPFHLFPHTPFDPVLPSEAKFLGSGTGFRPIGGGAGGSGKEFQAALGGNVPREQFTVVMLTYEREEVLMNSLERLNGLPYLNKVVVVWNSPKLPSEDLLWPDIGVPIMVVRTEKNSLNNRFLPWNEIETEAILSIDDDAHLRHDEIMFGFRVWREARDRIVGFPGRYHAWDIPHQSWLYNSNYSCELSMVLTGAAFFHKYYAYLYSYVMPQAIRDMVDEYINCEDIAMNFLVSHITRKPPIKVTSRWTFRCPGCPQALSHDDSHFHERHKCINFFVKVYGYMPLLYTQFRVDSVLFKTRLPHDKTKCFKFI
B2: GNG3, P63215 (protein)
chain: MKGETPVNSTMSIGQARKMVEQLKIEASLCRIKVSKAAADLMTYCDAHACEDPLITPVPTSENPFREKKFFCALL
B3: OR52N5, Q8NH56 (protein)
chain: MPLFNSLCWFPTIHVTPPSFILNGIPGLERVHVWISLPLCTMYIIFLVGNLGLVYLIYYEESLHHPMYFFFGHALSLIDLLTCTTTLPNALCIFWFSLKEINFNACLAQMFFVHGFTGVESGVLMLMALDRYVAICYPLRYATTLTNPIIAKAELATFLRGVLLMIPFPFLVKRLPFCQSNIISHTYCDHMSVVKLSCASIKVNVIYGLMVALLIGVFDICCISLSYTLILKAAISLSSSDARQKAFSTCTAHISAIIITYVPAFFTFFAHRFGGHTIPPSLHIIVANLYLLLPPTLNPIVYGVKTKQIRKSVIKFFQGDKGAG
B4: PNLIPRP3, Q17RR3 (protein)
chain: MLGIWIVAFLFFGTSRGKEVCYERLGCFKDGLPWTRTFSTELVGLPWSPEKINTRFLLYTIHNPNAYQEISAVNSSTIQASYFGTDKITRINIAGWKTDGKWQRDMCNVLLQLEDINCINLDWINGSREYIHAVNNLRVVGAEVAYFIDVLMKKFEYSPSKVHLIGHSLGAHLAGEAGSRIPGLGRITGLDPAGPFFHNTPKEVRLDPSDANFVDVIHTNAARILFELGVGTIDACGHLDFYPNGGKHMPGCEDLITPLLKFNFNAYKKEMASFFDCNHARSYQFYAESILNPDAFIAYPCRSYTSFKAGNCFFCSKEGCPTMGHFADRFHFKNMKTNGSHYFLNTGSLSPFARWRHKLSVKLSGSEVTQGTVFLRVGGAVRKTGEFAIVSGKLEPGMTYTKLIDADVNVGNITSVQFIWKKHLFEDSQNKLGAEMVINTSGKYGYKSTFCSQDIMGPNILQNLKPC
B5: DPP3, Q9NY33 (protein)
chain: MADTQYILPNDIGVSSLDCREAFRLLSPTERLYAYHLSRAAWYGGLAVLLQTSPEAPYIYALLSRLFRAQDPDQLRQHALAEGLTEEEYQAFLVYAAGVYSNMGNYKSFGDTKFVPNLPKEKLERVILGSEAAQQHPEEVRGLWQTCGELMFSLEPRLRHLGLGKEGITTYFSGNCTMEDAKLAQDFLDSQNLSAYNTRLFKEVDGEGKPYYEVRLASVLGSEPSLDSEVTSKLKSYEFRGSPFQVTRGDYAPILQKVVEQLEKAKAYAANSHQGQMLAQYIESFTQGSIEAHKRGSRFWIQDKGPIVESYIGFIESYRDPFGSRGEFEGFVAVVNKAMSAKFERLVASAEQLLKELPWPPTFEKDKFLTPDFTSLDVLTFAGSGIPAGINIPNYDDLRQTEGFKNVSLGNVLAVAYATQREKLTFLEEDDKDLYILWKGPSFDVQVGLHELLGHGSGKLFVQDEKGAFNFDQETVINPETGEQIQSWYRSGETWDSKFSTIASSYEECRAESVGLYLCLHPQVLEIFGFEGADAEDVIYVNWLNMVRAGLLALEFYTPEAFNWRQAHMQARFVILRVLLEAGEGLVTITPTTGSDGRPDARVRLDRSKIRSVGKPALERFLRRLQVLKSTGDVAGGRALYEGYATVTDAPPECFLTLRDTVLLRKESRKLIVQPNTRLEGSDVQLLEYEASAAGLIRSFSERFPEDGPELEEILTQLATADARFWKGPSEAPSGQA
B6: OR9Q1, Q8NGQ5 (protein)
chain: MAEMNLTLVTEFLLIAFTEYPEWALPLFLLFLFMYLITVLGNLEMIILILMDHQLHAPMYFLLSHLAFMDVCYSSITVPQMLAVLLEHGAALSYTRCAAQFFLFTFFGSIDCYLLALMAYDRYLAVCQPLLYVTILTQQARLSLVAGAYVAGLISALVRTVSAFTLSFCGTSEIDFIFCDLPPLLKLTCGESYTQEVLIIMFAIFVIPASMVVILVSYLFIIVAIMGIPAGSQAKTFSTCTSHLTAVSLFFGTLIFMYLRGNSDQSSEKNRVVSVLYTEVIPMLNPLIYSLRNKEVKEALRKILNRAKLS
B7: OTUB2, Q96DC9 (protein)
chain: MSETSFNLISEKCDILSILRDHPENRIYRRKIEELSKRFTAIRKTKGDGNCFYRALGYSYLESLLGKSREIFKFKERVLQTPNDLLAAGFEEHKFRNFFNAFYSVVELVEKDGSVSSLLKVFNDQSASDHIVQFLRLLTSAFIRNRADFFRHFIDEEMDIKDFCTHEVEPMATECDHIQITALSQALSIALQVEYVDEMDTALNHHVFPEAATPSVYLLYKTSHYNILYAADKH
B8: FBXL19-AS1, Q494R0 (protein)
chain: MAEPGGRGDYRKDGRLPSLSRSPLSTTLGTSPACGLEIPPTSGARPDGSCSLPAPVYHLKSRQWKGMGRGYRQRWRLQGRGDCDMGCVVQASGLFPAEMRERTTKKMATSPLDLCAGACWEM
B9: OMG, P23515 (protein)
chain: MEYQILKMSLCLFILLFLTPGILCICPLQCICTERHRHVDCSGRNLSTLPSGLQENIIHLNLSYNHFTDLHNQLTQYTNLRTLDISNNRLESLPAHLPRSLWNMSAANNNIKLLDKSDTAYQWNLKYLDVSKNMLEKVVLIKNTLRSLEVLNLSSNKLWTVPTNMPSKLHIVDLSNNSLTQILPGTLINLTNLTHLYLHNNKFTFIPDQSFDQLFQLQEITLYNNRWSCDHKQNITYLLKWMMETKAHVIGTPCSTQISSLKEHNMYPTPSGFTSSLFTVSGMQTVDTINSLSVVTQPKVTKIPKQYRTKETTFGATLSKDTTFTSTDKAFVPYPEDTSTETINSHEAAAATLTIHLQDGMVTNTSLTSSTKSSPTPMTLSITSGMPNNFSEMPQQSTTLNLWREETTTNVKTPLPSVANAWKVNASFLLLLNVVVMLAV
B10: SBSPON, Q8IVN8 (protein)
chain: MRTLWMALCALSRLWPGAQAGCAEAGRCCPGRDPACFARGWRLDRVYGTCFCDQACRFTGDCCFDYDRACPARPCFVGEWSPWSGCADQCKPTTRVRRRSVQQEPQNGGAPCPPLEERAGCLEYSTPQGQDCGHTYVPAFITTSAFNKERTRQATSPHWSTHTEDAGYCMEFKTESLTPHCALENWPLTRWMQYLREGYTVCVDCQPPAMNSVSLRCSGDGLDSDGNQTLHWQAIGNPRCQGTWKKVRRVDQCSCPAVHSFIFI
B11: GDF5OS, Q5U4N7 (protein)
chain: MIQSSQPMSLKLTCSAFRLQRALRFLLGRLPWRVASGARRFRRWLNRYSYTVLSSWPERALISLKNRSRFLVRPNTRNRAFSWTCRAARSKPRPRRSTALPRSQASSSRHSWAEFLKFRKSFQMSNTSQPDPSRPGTERTSSKEAGCRPLGQLDSFSWAARPPPGAAGLAVSEGFFRKIRSSAPSSPSFSRALMSNTYLCFLTTGPRSSRENTQKSFPATSPREPVTSRLRGKAPALSPSRELSFTSAPF
B12: TDO2, P48775 (protein)
chain: MSGCPFLGNNFGYTFKKLPVEGSEEDKSQTGVNRASKGGLIYGNYLHLEKVLNAQELQSETKGNKIHDEHLFIITHQAYELWFKQILWELDSVREIFQNGHVRDERNMLKVVSRMHRVSVILKLLVQQFSILETMTALDFNDFREYLSPASGFQSLQFRLLENKIGVLQNMRVPYNRRHYRDNFKGEENELLLKSEQEKTLLELVEAWLERTPGLEPHGFNFWGKLEKNITRGLEEEFIRIQAKEESEEKEEQVAEFQKQKEVLLSLFDEKRHEHLLSKGERRLSYRALQGALMIYFYREEPRFQVPFQLLTSLMDIDSLMTKWRYNHVCMVHRMLGSKAGTGGSSGYHYLRSTVSDRYKVFVDLFNLSTYLIPRHWIPKMNPTIHKFLYTAEYCDSSYFSSDESD
B13: C11orf87, Q6NUJ2 (protein)
chain: MSARAPKELRLALPPCLLNRTFASPNASGSGNTGARGPGAVGSGTCITQVGQQLFQSFSSTLVLIVLVTLIFCLIVLSLSTFHIHKRRMKKRKMQRAQEEYERDHCSGSRGGGGLPRPGRQAPTHAKETRLERQPRDSPFCAPSNASSLSSSSPGLPCQGPCAPPPPPPASSPQGAHAASSCLDTAGEGLLQTVVLS

Molecular target: SARS-CoV-2 NSP2
Assay: yeast fitness gain over the viral ORF with no human partner (scaled fitness); higher = more likely to interact
Description: (§1)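 Split mouse DHFR complementation in pooled diploid yeast: human ORFeome clones carry one fragment and viral ORFs the other; barcoded lineages compete in 1 µg/mL methotrexate and fitness is read by barcode sequencing in up to three cultures.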

Binder	yeast fitness gain
B1	inactive: 0.0565
B2	inactive: -0.131
B3	inactive: -0.417
B4	inactive: -0.315
B5	inactive: -0.31
B6	inactive: -0.314
B7	inactive: -0.0546

Molecular target: SARS-CoV-2 ORF3B
Assay: as above
Description: as §1

Binder	yeast fitness gain
B2	inactive: -0.118
B10	inactive: 0.00762
B11	inactive: -0.167

Molecular target: SARS-CoV-2 ORF6
Assay: as above
Description: as §1

Binder	yeast fitness gain
B2	inactive: -0.158
B3	inactive: -0.0563
B7	inactive: 0.00169

Molecular target: SARS-CoV-2 ORF9B
Assay: as above
Description: as §1

Binder	yeast fitness gain
B2	inactive: -0.124
B6	inactive: -0.161
B7	inactive: -0.12
B13	inactive: -0.0389

Molecular target: SARS-CoV-2 NSP5
Assay: as above
Description: as §1

Binder	yeast fitness gain
B4	inactive: 0.0558
B6	inactive: -0.116
B7	inactive: 0.0149

Molecular target: SARS-CoV-2 ORF7A
Assay: as above
Description: as §1

Binder	yeast fitness gain
B4	inactive: 0.15

Molecular target: SARS-CoV-2 ORF8
Assay: as above
Description: as §1

Binder	yeast fitness gain
B4	inactive: 0.00767
B6	inactive: 0.0552
B7	inactive: 0.00745

Molecular target: SARS-CoV-2 ORF9Bwu (the 73-codon ORF)
Assay: as above
Description: as §1

Binder	yeast fitness gain
B6	inactive: -0.00299

Molecular target: SARS-CoV-2 S
Assay: as above
Description: as §1

Binder	yeast fitness gain
B6	inactive: -0.228
B13	inactive: -0.0424

Molecular target: SARS-CoV-2 NSP6
Assay: as above
Description: as §1

Binder	yeast fitness gain
B8	inactive: -0.0342

Molecular target: SARS-CoV-2 NSP7
Assay: as above
Description: as §1

Binder	yeast fitness gain
B9	inactive: -0.0626

Molecular target: SARS-CoV-2 ORF10
Assay: as above
Description: as §1

Binder	yeast fitness gain
B10	inactive: -0.0425
B11	inactive: 0.0899
B12	inactive: -0.123
B13	inactive: 0.0425

From the supplement of paper PMC11741623
